In all, about 110,000 compounds were measured (“z-score”: median about -0.1, highest 2% from about 2 on). The list shows a part of the results. Activity calls are given as the source filed them.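 How the source made its calls: active means z-score in the third read window above 3 or below -3; inactive means the rest.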
molecular target: Metabotropic glutamate receptor 8 (Rattus norvegicus) (UniProt P70579); experiment: rat mGluR8 modulators via GIRK flux, primary screen, cell-based, thallium flux, HTS (AID 488969); conditions: HEK293 rat mGluR8, GIRK (G protein-gated inwardly rectifying potassium channel) thallium flux, FluoZin2; at 10 µM; stronger effect = higher value; submaximal glutamate (EC20) added with thallium
Sequence of UniProt P70579 (P70579 whole entry, looked up): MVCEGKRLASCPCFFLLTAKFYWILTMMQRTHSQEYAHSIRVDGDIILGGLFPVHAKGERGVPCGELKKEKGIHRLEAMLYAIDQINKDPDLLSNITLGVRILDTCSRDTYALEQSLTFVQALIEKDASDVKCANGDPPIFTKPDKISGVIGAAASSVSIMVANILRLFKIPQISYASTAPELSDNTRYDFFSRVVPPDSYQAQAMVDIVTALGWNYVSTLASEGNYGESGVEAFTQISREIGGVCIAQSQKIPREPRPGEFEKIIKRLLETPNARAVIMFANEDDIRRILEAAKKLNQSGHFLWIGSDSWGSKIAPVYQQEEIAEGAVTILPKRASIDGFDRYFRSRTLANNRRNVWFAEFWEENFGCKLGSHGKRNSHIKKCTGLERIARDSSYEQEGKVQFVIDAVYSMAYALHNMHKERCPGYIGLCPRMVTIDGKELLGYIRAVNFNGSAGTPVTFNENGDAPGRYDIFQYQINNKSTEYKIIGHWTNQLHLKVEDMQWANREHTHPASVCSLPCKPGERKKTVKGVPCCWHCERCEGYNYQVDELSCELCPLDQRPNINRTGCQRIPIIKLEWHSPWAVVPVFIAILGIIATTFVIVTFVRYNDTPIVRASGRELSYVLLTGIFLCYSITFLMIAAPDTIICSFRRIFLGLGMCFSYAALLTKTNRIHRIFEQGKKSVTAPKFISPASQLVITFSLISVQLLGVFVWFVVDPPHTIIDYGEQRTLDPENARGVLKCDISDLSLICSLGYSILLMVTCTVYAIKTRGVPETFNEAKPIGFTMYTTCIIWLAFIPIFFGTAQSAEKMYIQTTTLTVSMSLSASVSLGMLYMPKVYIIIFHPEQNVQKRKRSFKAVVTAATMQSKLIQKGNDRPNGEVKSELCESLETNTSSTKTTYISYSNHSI

Row | SMILES | z-score
1 | Cc1c(C(=O)N2CCCCCC2)nnn1-c1nonc1N | 0.063
2 | Cc1no[n+]([O-])c1COc1ccc(/C=C2\NC(=S)NC2=O)cc1 | -0.00802
3 | CC(CN1CCOCC1)C(=O)O (stereo not given) | 0.239
4 | Nc1c(CO)nnn1-c1ccccc1 | -0.379
5 | Cc1cc2c(cc1C)CSC(c1ccc3ccccc3c1O)SC2 | -0.287
6 | CCOC(=O)c1c(-c2ccc(C)o2)csc1NC(=O)COC(=O)c1ccc(NC(N)=O)cc1 | -0.383
7 | COc1ccc2c(c1OC)C(=O)N1c3ccccc3N=C(c3ccc([N+](=O)[O-])cc3)CC21 (stereo not given) | -0.351
8 | C1CCC(n2nnnc2CN2CCCC2)CC1 | -0.256
9 | CC(=O)c1c(C)[nH]c(C(=O)Nc2c(C)n(C)n(-c3ccccc3)c2=O)c1C | -0.542
10 | Cc1ccc2cc(/C=N/NC(=O)CN3CCOCC3)c(Cl)nc2c1 | -0.0884
11 | CCN(CC)Cc1c(CC(C)C)oc(C)c1C(=O)O | 0.246
12 | COc1ccc(C2(C(=O)NC3CCCCC3)CCOCC2)cc1OC | -1.5
13 | Cc1ccccc1Cn1ccc(NC(=O)c2nc3ncccn3n2)n1 | -1.29
14 | COc1ccc(CCn2c(N)c(C#N)c3nc4ccccc4nc32)cc1OC | 0.417
15 | Cc1ccc(C(=O)CSc2cnc3ccccc3n2)cc1C | -0.0357
16 | Cn1c(=O)[nH]c(=O)c2c1nc(NCc1ccccc1)n2CC(O)c1ccccc1 (stereo not given) | 0.332
17 | COc1ccccc1C(CNC(=O)c1ccc(S(=O)(=O)NCc2ccco2)cc1)N(C)C (stereo not given) | -0.112
18 | Cc1cc(Nc2ccccc2Cl)n2nnnc2n1 | 0.826
19 | CC(=O)Nc1ccc(NC(=O)Cn2cc3c(n2)CCC(C)C3)cc1 (stereo not given) | 0.325
20 | Cc1cc(C#N)c(C)n1-c1cc(C(F)(F)F)ccc1N1CCOCC1 | -0.333
21 | CN1CCN(CCc2nc3cc(NC(=O)COc4ccccc4)ccc3n2C)CC1 | -0.261
22 | Cc1c(NC(=O)c2ccc(Cl)c(S(=O)(=O)N3CCOCC3)c2)c(=O)n(-c2ccccc2)n1C | -0.296
23 | Cc1ccc(C(=O)O/N=C(/c2nonc2N)N(C)C)cc1 | -0.0384
24 | CC(=O)C1=C(C)NC(SCc2ccc(C#N)cc2)=C(C#N)C1c1ccco1 (stereo not given) | active: 5.85

Row | SMILES | z-score
25 | NS(=O)(=O)c1ccc(NC(=O)CN2CCN(Cc3ccccc3)CC2)cc1 | 0.629
26 | COc1ccc(/C=C/C(=O)c2cc(F)ccc2OC(=O)c2ccccc2)cc1OC | -0.291
27 | CCCCNC(=O)C(Sc1ccccc1)c1ccccc1 (stereo not given) | -0.515
28 | CCOC(=O)C1=C(CN2CCC(C)CC2)NC(=O)NC1c1ccc(Cl)cc1 (stereo not given) | -0.112
29 | CC(=NCCCn1ccnc1)c1c(-c2ccccc2)[nH]n(-c2nc3ccccc3s2)c1=O | -0.357
30 | Cc1cc(-c2nn3c(-c4ccccc4)nnc3s2)c2ccccc2n1 | -0.635
31 | CC(=O)Nc1ccc(S(=O)(=O)Nc2nc(-c3ccc(C(C)(C)C)cc3)cs2)cc1 | 0.0667
32 | Cc1c(/C=N/N2C(=O)C3C4C=CC(C4)C3C2=O)c2ccccc2n1C (stereo not given) | -0.125
33 | CCOC(=O)N1CCC(NC(=O)C(Cc2ccccc2)NC(=O)C2CCCCC2)CC1 (stereo not given) | -0.251
34 | O=C(Nc1ccccc1Cl)NC1(C(=O)NCCCN2CCOCC2)CCCCC1 | -0.514
35 | CCOc1ccc(-c2nc(CSc3nnc(N)s3)cs2)cc1 | -0.282
36 | COc1ccccc1N1C(=O)CC(Sc2nccc(C)n2)C1=O (stereo not given) | 1.42
37 | O=C(Nc1ccc(S(=O)(=O)Nc2ncccn2)cc1)c1ccc(Br)s1 | 0.347
38 | Cc1cccc(C(=O)Nc2cccc(C(=O)N3CCOCC3)c2)c1 | 0.616
39 | CC1=C(C(=O)Nc2ccccc2C)C(c2ccc(C)o2)N2C(=O)CSC2=N1 (stereo not given) | 0.284
40 | CN(NC(=O)c1cccc(Cl)c1)c1nc(-c2ccccc2)nnc1C(F)(F)F | -0.0813
41 | Cc1ccc(S(=O)(=O)N(CC(=O)N2CCN(c3ccccc3F)CC2)C2CCCCC2)cc1 | -0.459
42 | CCOC(=O)c1ccc(NC(=O)N2CCN(CCc3ccccc3)CC2)cc1 | -0.758
43 | CCn1c(C(C)NC(C)=O)nc2ccccc21 (stereo not given) | -0.358
44 | COc1ccc(CCN2C(=O)NC(NC(=O)CCc3ccccc3)(C(F)(F)F)C2=O)cc1OC (stereo not given) | -0.276
45 | CCCOc1ccc(N2C(=O)CC(NCCc3ccc(S(N)(=O)=O)cc3)C2=O)cc1 (stereo not given) | -0.206
46 | O=C(O)/C=C/C(=O)Nc1ccc(Oc2ccc(NC(=O)/C=C/C(=O)O)cc2)cc1 | -0.19
47 | CCCC(=O)Nc1cccc(NC(=O)c2cccc([N+](=O)[O-])c2C)c1 | 1.04
48 | CC(C)CCNC(=O)CCn1nc(-c2ccccc2)ccc1=O | -0.445

Row | SMILES | z-score
49 | CCCC(=NCCc1c(C)[nH]c2ccccc12)C1=C(O)CC(c2ccccc2)CC1=O (stereo not given) | 0.13
50 | CCOC(=O)N1CCC(NC(=O)C2=C(C)C(=O)OC23CCC(C)CC3)CC1 (stereo not given) | -1.59
51 | Cn1c(=O)c(-[n+]2ccccc2)c([O-])c2ccccc21 | -0.0632
52 | CC1CCc2c(nc3nc[nH]n3c2=O)C1 (stereo not given) | -1.14
53 | CCOc1ccc(NC(=O)CSc2nc(C)cc(C)n2)cc1 | 0.67
54 | CCOc1cc(C(=O)Nc2ccc(S(=O)(=O)Nc3cc(C)on3)cc2)cc(OCC)c1OCC | -1.18
55 | CCOC(=O)C1CCN(Cc2ccc(F)cc2)CC1 | 0.459
56 | COc1cc(/C=N/N2CCN(C3c4ccccc4-c4ccccc43)CC2)cc(OC)c1OC | -0.118
57 | CCOc1ccc(-n2c(SCC(=O)Nc3ccccc3C)n[nH]c2=O)cc1 | -0.0269
58 | CCCc1ccc(-c2csc(NC(=O)Cc3cccs3)n2)cc1 | -0.124
59 | COc1ccc(NC(=O)C2CCCCN2N)cc1OC (stereo not given) | -0.0931
60 | C=C1C(C(=O)N2CCN(C)CC2)C1C(=O)N1CCN(C)CC1 (stereo not given) | -0.401
61 | C=CCN1C(=O)C(C(C)CC)NC1=S (stereo not given) | -0.0458
62 | O=C(CN1CCN(CCO)CC1)Nc1ccccc1 | -0.0301
63 | Cc1cnc2cc(Cl)c(Cl)cc2n1 | -0.703
64 | Cc1ccc2[nH]c3c(=O)n(CCN4CCNCC4)cnc3c2c1 | 0.652
65 | CCC(C)(C(=O)NC1CCCCC1)N(C(=O)c1ccccn1)c1ccccc1 (stereo not given) | 0.961
66 | COc1ccc(NS(=O)(=O)c2cc(C)ccc2OC)cc1OC | 0.501
67 | COc1ccc(S(=O)NC2CCCCC2)c(OC)c1C (stereo not given) | -0.439
68 | Cc1ccc(NC(=O)c2ccco2)cc1NC(=O)CSc1nnc(-c2cccs2)n1C | -1.02
69 | CCCC(=O)Nc1ccc(C(=O)NNC(=S)NC(=O)c2cccs2)cc1 | -0.0886
70 | CCCn1c(SCC(=O)Nc2ccccc2Oc2ccccc2)n[nH]c1=O | 0.137

Source: PubChem BioAssay AID488969 (Vanderbilt High Throughput Screening Facility, 2010)
